B1: Ku70 domain B (β-barrel domain) with Strep-tag II (domain or fragment)
chain: not shown
B2: Ku70 domain C (C-terminal domain) with Strep-tag II (domain or fragment)
chain: not shown

Experiments:
[1] = biological target: T1, HBoV1 NS[…] with Flag and His tags (human bocavirus 1 (HBoV1)); test: BLI
[2] = biological target: T1, HBoV1 NS[…] with Flag and His tags; test: BLI; remark: listed apart in the source

Binder | koff [1] [s⁻¹] | Kd [2] [nM]
B1 | 0.000808 | 230
B2 | 0.000667 | 

Source: paper PMC8865542 (2021)
